# Experimental data: the supplement of paper PMC3694890
# ± gives the uncertainty stated by the source. The list shows a part of the results. Phosphotyrosine is written y.
# B1: TXK_420/A1 (peptide)
# chain: yVSSFG
# B2: TR150_476/A1 (peptide)
# chain: yAPPGK
# B3: VAV2_159/A1 (peptide)
# chain: yDCVPC
# B4: VAV3_439/A1 (peptide)
# chain: yEMKEI
# B5: VEGFR1_1169/A1 (peptide)
# chain: yIPINA
# B6: BLNK_72/A1 (peptide)
# chain: yENPDE
# B7: VAV2_529/A1 (peptide)
# chain: yTFDKT
# B8: VAV3_141/A1 (peptide)
# chain: yKGLPD
# B9: VEGFR1_1053/A1 (peptide)
# chain: yVRKGD
# B10: VAV2_172/A1 (peptide)
# chain: yEDIIK
# B11: VAV1_142/A1 (peptide)
# chain: ySGLSD
# B12: VEGFR1_794/A1 (peptide)
# chain: yLSIIM
# B13: TYRO3_685/A1 (peptide)
# chain: yYRQGC
# B14: BLNK_84/A1 (peptide)
# chain: yVMPAE
# B15: VEGFR1_1242/A1 (peptide)
# chain: yQGDSS
# B16: VAV1_844/A1 (peptide)
# chain: yYSEYC
# B17: TXNIP_Y378/A1 (peptide)
# chain: yTEVDP
# B18: BLNK_189/A1 (peptide)
# chain: yIHPTE
# B19: VEGFR1_1213/A1 (peptide)
# chain: yVNAFK
# B20: TR150_228/A1 (peptide)
# chain: yGTGSA
# B21: TYRO3_686/A1 (peptide)
# chain: yRQGCA
# B22: VEGFR1_1048/A1 (peptide)
# chain: yKNPDY
# B23: TR150_54/A1 (peptide)
# chain: ySPAHN
# B24: VEGFR1_1333/A1 (peptide)
# chain: ySTPPI
# B25: VEGFR1_1327/A1 (peptide)
# chain: yNSVVL
# B26: VAV1_826/A1 (peptide)
# chain: yGRVGW
# B27: TXK_91/A1 (peptide)
# chain: yDFLPR
# B28: TR150_68/A1 (peptide)
# chain: yQNRDF
# B29: VAV1_174/A1 (peptide)
# chain: yEDLMR
# B30: ABL1_185/A1 (peptide)
# chain: yVSSES
# B31: VAV1_160/A1 (peptide)
# chain: yDCVEN
# B32: VAV1_441/A1 (peptide)
# chain: yDLKDF
# B33: VAV2_142/A1 (peptide)
# chain: yRSLEE
# Target: GRB2 (endogenous complexes from cell lysate), P62993
# Experiment: GRB2 complex binding differential signal (pY peptide minus Ala control peptide) (fluorescence intensity units); higher = stronger GRB2 complex binding
# 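Note: phosphopeptide probes on the chip at 1–4 µM, lysate proteins bound in 20 mM Tris pH 7.0 buffer with 140 mM NaCl, 1% Triton X-100 and 5% glycerol.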
Binder,GRB2 complex binding differential signal (MCF7),GRB2 complex binding differential signal (MCF10A),GRB2 complex binding differential signal (MDA-MB-231),GRB2 complex binding differential signal (T47D)
B1,997 ± 390,429 ± 350,938 ± 370,1600 ± 1100
B2,7040 ± 1800,3360 ± 650,995 ± 370,1280 ± 960
B3,40.9 ± 630,92.5 ± 130,335 ± 210,172 ± 870
B4,782 ± 480,862 ± 170,1280 ± 450,1290 ± 1100
B5,800 ± 1100,287 ± 1200,763 ± 460,1900 ± 1100
B6,6430 ± 1400,3880 ± 690,9850 ± 790,13500 ± 2900
B7,777 ± 450,25.1 ± 270,849 ± 440,725 ± 3700
B8,1150 ± 370,4290 ± 1400,1200 ± 300,1200 ± 990
B9,1180 ± 2600,1290 ± 370,478 ± 240,557 ± 880
B10,684 ± 290,897 ± 700,1150 ± 520,907 ± 1100
B11,502 ± 300,169 ± 260,1530 ± 480,2970 ± 1700
B12,389 ± 580,539 ± 290,1150 ± 490,358 ± 1200
B13,253 ± 280,169 ± 400,100 ± 250,48.2 ± 1500
B14,5490 ± 730,3390 ± 1200,1800 ± 400,1890 ± 1500
B15,656 ± 430,575 ± 300,1400 ± 320,2530 ± 1600
B16,-30.3 ± 270,72.2 ± 170,253 ± 250,192 ± 1600
B17,1200 ± 240,858 ± 320,654 ± 320,-95.8 ± 3400

Binder,GRB2 complex binding differential signal (MCF7),GRB2 complex binding differential signal (MCF10A),GRB2 complex binding differential signal (MDA-MB-231),GRB2 complex binding differential signal (T47D)
B18,5990 ± 1300,3760 ± 870,1970 ± 420,1170 ± 1800
B19,55500 ± 5500,40700 ± 3600,11700 ± 1800,31700 ± 7000
B20,981 ± 400,824 ± 230,506 ± 290,522 ± 1300
B21,1230 ± 380,745 ± 490,356 ± 310,1040 ± 2900
B22,4150 ± 670,2420 ± 900,2220 ± 640,8880 ± 2900
B23,-464 ± 1300,235 ± 530,1010 ± 470,-335 ± 1400
B24,16800 ± 3100,11400 ± 2200,9140 ± 1100,7420 ± 1500
B25,-1790 ± 2600,1120 ± 290,725 ± 340,1510 ± 1200
B26,-88 ± 250,-2.72 ± 600,172 ± 410,-30.3 ± 990
B27,1730 ± 660,405 ± 320,447 ± 350,895 ± 920
B28,25600 ± 8500,18200 ± 2600,5300 ± 960,18900 ± 3000
B29,1090 ± 420,-362 ± 960,652 ± 270,998 ± 1600
B30,1240 ± 180,1050 ± 450,1130 ± 290,1530 ± 1000
B31,118 ± 180,104 ± 220,167 ± 310,124 ± 880
B32,346 ± 260,127 ± 210,422 ± 340,252 ± 1400
B33,912 ± 320,778 ± 300,962 ± 340,315 ± 1100
